Our source for the switch fluorescence ratio values is the supplement of paper PMC10126150.

Sequences with one replicate were seen in a single cluster, so their values are uncertain.

For this data set, the system named is ATP. The data set is described as follows: switch fluorescence ratio, 500 uM ATP over buffer (Cy3 cluster intensity, sum of 5 cycles each) (fold (ratio)); higher = stronger signal-on switching upon ATP binding; sequences stand for … in TCGTCGGCAGCGTCAGATGTGTATAAGAGACAGTTTTTTTTTTTTTTTTTTTTTTTTT…TC. The conditions noted are these: aptamer strand: ATP DNA aptamer (quencher-CACCTGGGGGAGTATTGCGGAGGAAGG + anchor), 100 nM annealed; ATP concentration: 500 uM; one replicate. An outline of the steps: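 Per cluster, summed Cy3 intensity from the target cycles was divided by that from the buffer cycles to give the fluorescence ratio, then averaged per switch-domain sequence. Clusters outside 100-1000 RFU were excluded. The Cy3-labelled switching-strand clusters, on a modified Illumina MiSeq flow-cell, were annealed to 100 nM quencher-labelled ATP aptamer and imaged in selection buffer, then after 15 min with 500 uM ATP at 22 °C, for five cycles with NaOH stripping and re-annealing between them.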
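Also: ATP exposure 15 min at 22 °C before imaging.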

On to TTGTTCGGAA, for which the switch fluorescence ratio was 1.03.

As to CGCTTTAATC, the switch fluorescence ratio turned out to be 1.22.

Consider CTGGACCCG, for which the switch fluorescence ratio amounted to 0.991.

With CCAAATCTCA, the switch fluorescence ratio is 1.06.

Take GGCTAGTTAA: the switch fluorescence ratio is 0.98.

Regarding ACTGGGTGTT, the switch fluorescence ratio is 1.11.

In the case of TACATTGTC, the switch fluorescence ratio worked out at 0.883.

As to GCACTTTCTA, the switch fluorescence ratio came out at 1.02.

As for GCAGAAATCA, the switch fluorescence ratio was 1.01.

CGCACACGGA: the switch fluorescence ratio came to 1.17.

Turning to CCATGGAGAG, the switch fluorescence ratio was found to be 0.975.

As for GATTGTAGC, the switch fluorescence ratio turned out to be 0.955.

For GATCCGAGG, the switch fluorescence ratio was 1.01.

Turning to CGTCAACAAC, the switch fluorescence ratio came to 1.34.

In the case of CAGGAAGCTA, the switch fluorescence ratio is 1.17.

On to CCCGGTGGGG, for which the switch fluorescence ratio came to 0.97.

As for GGATCGTTTT, the switch fluorescence ratio stood at 1.

Regarding TGTTTGTTGC, the switch fluorescence ratio worked out at 0.975.

With GAGTCAACCT, the switch fluorescence ratio amounted to 1.41.

With ACAAACATGC, the switch fluorescence ratio turned out to be 1.17.

For the sequence CGCGGTGGTT, the switch fluorescence ratio worked out at 0.983.

Regarding CGCAGCGGCG, the switch fluorescence ratio amounted to 1.01.

For ATAATCAAGC, the switch fluorescence ratio is 1.

Take CAGTTACCTA: the switch fluorescence ratio is 1.07.

For the sequence AAATAAATA, the switch fluorescence ratio was 0.966.

For TTGGGTACAG, the switch fluorescence ratio came to 1.02.

In the case of CGGATCCGGT, the switch fluorescence ratio is 0.984.

As for CATCTTAT, the switch fluorescence ratio was determined as 0.978.

As to TAATGTCCGT, the switch fluorescence ratio is 1.08.

Consider TGATAACGCA, for which the switch fluorescence ratio was found to be 1.26.

Take GAAACTTTAC: the switch fluorescence ratio amounted to 1.4.

For the sequence CTAGGTAATC, the switch fluorescence ratio was 1.17.

As to GTATTGACCG, the switch fluorescence ratio is 1.02.

With GCGCAAAGGT, the switch fluorescence ratio was determined as 1.02.

Regarding TCGACTATTG, the switch fluorescence ratio is 0.911.

Turning to GATGGTCCTG, the switch fluorescence ratio came to 0.987.

With TCTTCGAAGC, the switch fluorescence ratio was determined as 0.963.

On to GAGCCTGATG, for which the switch fluorescence ratio worked out at 0.988.

For the sequence CAACGCATGT, the switch fluorescence ratio came to 1.12.

For the sequence ATCGAAGCAT, the switch fluorescence ratio is 1.23.

Regarding GGTAGGTTAG, the switch fluorescence ratio amounted to 0.963.

Consider TGAGAAAACA, for which the switch fluorescence ratio amounted to 0.98.

Regarding ATGAGCATCC, the switch fluorescence ratio came out at 1.01.

Regarding TAAAGAGTCT, the switch fluorescence ratio came to 1.03.

In the case of CTACATCGGA, the switch fluorescence ratio turned out to be 0.968.

For AAGCCTGGGA, the switch fluorescence ratio turned out to be 1.17.

CTCGGAGCCC: the switch fluorescence ratio turned out to be 1.08.

Consider GATTGGGT, for which the switch fluorescence ratio is 1.02.

Take AAATTGGGGC: the switch fluorescence ratio worked out at 1.01.

In the case of GGCCTAAGGA, the switch fluorescence ratio was found to be 1.02.

On to GTCAGCACGG, for which the switch fluorescence ratio was 1.03.

Consider ATATAAGAAG, for which the switch fluorescence ratio amounted to 0.991.

Turning to ATGCCAACT, the switch fluorescence ratio turned out to be 1.01.

TCCCGGAAGT: the switch fluorescence ratio came to 1.02.

Consider CTGCAGTAGC, for which the switch fluorescence ratio turned out to be 2.43.

As to GCATGATACC, the switch fluorescence ratio was found to be 1.1.

In the case of CCAGTATTT, the switch fluorescence ratio is 1.02.

Regarding GGTCATGTAC, the switch fluorescence ratio worked out at 1.04.

As for GTTCATATTT, the switch fluorescence ratio came out at 0.962.

Turning to AATTACACCG, the switch fluorescence ratio amounted to 1.03.

TGGATTTAA: the switch fluorescence ratio was 0.991.

For ATGACAAGGA, the switch fluorescence ratio was found to be 1.01.

Turning to TACGCCATAG, the switch fluorescence ratio came out at 1.66.

Consider GTCAACCGTG, for which the switch fluorescence ratio came out at 0.992.

For the sequence ATGTTTGC, the switch fluorescence ratio stood at 1.01.

For TTCAAACTGG, the switch fluorescence ratio is 1.06.

With AACTAGGGAT, the switch fluorescence ratio is 0.978.

Turning to AAGCGTGCCA, the switch fluorescence ratio is 1.03.

For CACTATGCTA, the switch fluorescence ratio worked out at 1.1.

With AGATCTGTTA, the switch fluorescence ratio turned out to be 0.993.

In the case of CGTTCCGCGG, the switch fluorescence ratio was 1.35.

In the case of ATGTAATACC, the switch fluorescence ratio amounted to 1.12.

Take TTCGATGTGT: the switch fluorescence ratio was determined as 1.03.

As for CACAGGTAGG, the switch fluorescence ratio is 1.07.

Consider GTGTACATCT, for which the switch fluorescence ratio came to 1.01.

In the case of AAATAGCACT, the switch fluorescence ratio came to 1.03.

On to CCGTCGTCCT, for which the switch fluorescence ratio stood at 1.04.

Consider GGAAGCCGCG, for which the switch fluorescence ratio was found to be 0.994.

With GGTGTGACGC, the switch fluorescence ratio is 1.01.
